Assay results taken from the RNAGym collection of RNA variant scans (doi:10.7554/elife.90254).
The source gives no read counts; variants with many changes may rest on few reads.

B1: LINE1-mini (parent)
chain: GGCAGAGCUCAACACAGCGUGGCAAAGUGGCUGUGGCUAGACUGCC

Variants of: B1
Assay: self-cleavage, relative activity (ratio to wild type); higher = more cleavage; in vitro, sequencing; the parent is a self-cleaving ribozyme

Row | Variant | self-cleavage
1 | GGCAAAGCUCAACACAGCGUGGCUAAGUGGCUGUGGAUAGACUGCC [G5A A24U C37A] | 0.07
2 | CGCAGAGCUCAACACAGCGUGGCAAAGUGGCUGUGGCUAGAAUGCU [G1C C42A C46U] | 0.02
3 | GGCAGAGCAUAACACAGCGUGGCAAAGUCGUUGUGGCUACACUGCC [U9A C10U G29C C31U G40C] | 0.03
4 | GGCAGAGCUCAGCAUAGCGUGGCGAAGUGGCUGUGGCUACACUGCU [A12G C15U A24G G40C C46U] | 0
5 | GGCAGAGCUCAACACAGCGUGGCAAAGUGGUUGUGGCUACACUGAC [C31U G40C C45A] | 0.03
6 | GGCAGAGCUCAAUACAGCUUGGCAGAGUGGCUGUGGCUAGACUGCC [C13U G19U A25G] | 0.03
7 | GGCAGAGCUCAACACAACGUGGCAAAGUGGCUGUGGCUAUUCUGCC [G17A G40U A41U] | 0.06
8 | GGCGGUGCUCAACACAGCGUGGCAAAGUGGCUGUGGCUAGACUCCC [A4G A6U G44C] | 0.15
9 | GGCGGAGCUCCCCACAGCGUGUCAAAGUGGCUAUGGCUAGGCUGCC [A4G A11C A12C G22U G33A A41G] | 0.02
10 | GGCAGGGCUCACCACGGCGUGGCAACGUGGCUGUGAGUAGACUGCC [A6G A12C A16G A26C G36A C37G] | 0.01
11 | GGCAGAGCUCAACACAGCAUGGCAAAGCGGGUGUGGAUAGACUGCC [G19A U28C C31G C37A] | 0.05
12 | GGAAGAUCUGAACAAAGCGUGGCAAAGUGGCUGUUGCUAGACUGCC [C3A G7U C10G C15A G35U] | 0.03
13 | GGCAGAGCUCAACACAGCGUGGCAAAGUGGCUGUGGAUGGACUGAC [C37A A39G C45A] | 0.02
14 | GGUAGAGUUCAACACACCGUGGCAAAGUGGCUGUGGCUAGACUGCC [C3U C8U G17C] | 0.29
15 | GGCACAGCUCAACACAGCGUGGCGAAGUGGCUGUGGCUUGACUGCC [G5C A24G A39U] | 0.03
16 | GGCAGUGCUCAGCACAUCGCUGCAAAGUGGCUAUGUCUAGACUGCC [A6U A12G G17U U20C G21U G33A G36U] | 0.03
17 | GUCAGGGCUCAAAACAGCGUGGCAAAGUGGCUGUGGCUAGACUACC [G2U A6G C13A G44A] | 0
18 | GGAUGAGCUCAACACAGUGUGGCAACGUGGCUGUGGCUAGACUGCC [C3A A4U C18U A26C] | 0.23
19 | GGUAGAGCUCAACACAGUGUGGCAGAGUGGCUGUGGCUAGAAUGCC [C3U C18U A25G C42A] | 0.03

Row | Variant | self-cleavage
20 | GGCUAAGCUCAACACAGCGUGGCAAAUUGGCUGUGGCUAGAAUGCC [A4U G5A G27U C42A] | 0.03
21 | GGCAGAGCUCAACACAGCGUGGCAAAGUGGCUCUGGUUAGACUGGC [G33C C37U C45G] | 0.02
22 | GGCAGAGCUAAACUCAGCGCGGCAAAGUGGCUGUUACUAGAAUGCC [C10A A14U U20C G35U G36A C42A] | 0.01
23 | AGCAGAGCUCAACACAGGGUGGCAACGUGGCUGUGGCUAGACUGCC [G1A C18G A26C] | 0.14
24 | GGCAAAGCACAACACAGCGUGGGAAAGUGGCUGUGACAAGACUGCC [G5A U9A C23G G36A U38A] | 0.22
25 | GGCAGAGCACAACACACCAUGGCAAAGUGGCUGUGGCUAGACUGCC [U9A G17C G19A] | 0.08
26 | GGCAGAGCUGAACACAGCGUGGCAAAGGGGCUGUGGCUGGAAUGCC [C10G U28G A39G C42A] | 0
27 | GGCAGAGCUAAACACAGCGUGGCAAAGUGACUGUGGCCAGACUGCC [C10A G30A U38C] | 0.25
28 | GGCAGAACUCAACCCAGCGUGGCAAAGUGGCUGUGGAUACACUGCC [G7A A14C C37A G40C] | 0.24
29 | AGCAGAGCUCAACACCGCCUGGUUAAGUGGCUGUGGCUAGACUGCC [G1A A16C G19C C23U A24U] | 0.1
30 | GUAAGAGCUCAACACAGCCUGGCAAAGUGGAUGCGGCUAGACUGGC [G2U C3A G19C C31A U34C C45G] | 0.03
31 | CGCACAGCUCGACGCAGCGUGGCAAAGUGGCUGUGGCUAGACUGCC [G1C G5C A11G A14G] | 0
32 | AGCAGAGCUCAACACAGCUUGGCAAAGUGGCUAUGGCUAGACUGCC [G1A G19U G33A] | 0.1
33 | GAUAGAGAUCAACACUGCGUGGCAAAGUGGUUUUGGCUAGACUGCC [G2A C3U C8A A16U C31U G33U] | 0.75
34 | GACAGAGCUCAAUAGAGCGUGCCAAAGUGGCUAUGGCUAGACCGCG [G2A C13U C15G G22C G33A U43C C46G] | 0.09
35 | GGCAGAGCUCAAGACAGCAUGGCAAAGGGGAUGUGGCUAGACUGCC [C13G G19A U28G C31A] | 0.03
36 | AGCAGAGCUCAACCCAGCGUCGCAAAGUGGCUGUGGCUACACUGCC [G1A A14C G21C G40C] | 0.01
37 | GGCAGAGCUAAACACAGCCUGACCAAGUGGCUGUGGCUAGACUGCU [C10A G19C G22A A24C C46U] | 0.04
38 | GGCAUAGCUAAACACAGCGUGGCAAAGUGGCUGUGGUUAGACUGCC [G5U C10A C37U] | 0.02

Row | Variant | self-cleavage
39 | GGCAGAGCUCAACACAGCGUGGAAAAGUGGUUGUGGCUAGACUUCC [C23A C31U G44U] | 0
40 | GGCAGACCUCCACACAGAGUGGCAAAGUGGCUGUGUCGAGAGUGCC [G7C A11C C18A G36U U38G C42G] | 0
41 | GGCAGAGCUCAACACUGCGCAGCAGAGUCGCAGUGGCGAGACUGAU [A16U U20C G21A A25G G29C U32A U38G C45A C46U] | 0
42 | GGCAUAGCUCAUCACAGCGUCGCAAAGUGGCUGUGGCUAGAAUGCC [G5U A12U G21C C42A] | 0.53
43 | GGCAGAGCUCACCACAACCUGGCAAAUUGGCUGUGGCUGGACUGCU [A12C G17A G19C G27U A39G C46U] | 0
44 | GGCAGACCUCAACACAGCGUGGUAAAGUGGCUGUGGCUAAACCGCC [G7C C23U G40A U43C] | 0.07
45 | GGCAGAGCUCAACACAGCGUGGCAAAGUGGCUGUGUCUAUAGUGCG [G36U G40U C42G C46G] | 0.29
46 | AGCAGAGCUCAACACAGCGUGGCAAAAUGGAUGUGACUAGAAUGCC [G1A G27A C31A G36A C42A] | 0.04
47 | GGCUGAGCUCUACACAGCGUGGCACAGUGGCUGUGGCCAGACUGCC [A4U A11U A25C U38C] | 0
48 | UGCAGAGCUCAACACAGCCUGGCAAAGUGGCUGUGGCUAGACAGCC [G1U G19C U43A] | 0.01
49 | GGCAGAGCUCAACACAGCGUGGCAAAGUGGCCCUGGCUAGACUGCA [U32C G33C C46A] | 0.05
50 | GGCAGAGCUCAACACAGCGCGGCAAAGUGGCUGUGGCUACACGGCC [U20C G40C U43G] | 0.03
51 | GGCAGAGCUCAACACAGCGUGGCAGAGUGGCUUGGGCUAGAAUGCC [A25G G33U U34G C42A] | 0.01
52 | GGCAGAGCGCAACACAACGUGACAAAGUGGCUGUGGCUAGACUGCC [U9G G17A G22A] | 0.01
53 | GGCAGAGUUCAACACAGCGUGGAAAAGUGGCUGUGGCGAGACUGCC [C8U C23A U38G] | 0.02
54 | GGCUGAGCUCAACACAGCGUGGCAAAGUGGCCGUGGCUAGACGGCC [A4U U32C U43G] | 0.17
55 | GGCAGAGAUCAACACAGCGUGCCAAAGUGUCUGUGGCUAGACUGAC [C8A G22C G30U C45A] | 0.2
56 | AGCAGAGCUCAAGACAGCGUGGGAAAGUGGCUGUGGCUAGACUGCC [G1A C13G C23G] | 0.77
